90 molecules from paper PMC4336329 (PLoS ONE, 2015) can be followed below.

Molecules are shown by their SMILES. The whole screen tested about 310,000 compounds, of which about 2,200 (0.71%) showed an effect of 50% or more. The effect is printed as a negative number. This is one part of the list.

This assay deals with human ether-à-go-go-related gene (hERG) potassium channel (human, UniProt Q12809). The assay can be described thus: primary screen, population patch clamp on CHO cells stably expressing hERG.
Chain of human ether-à-go-go-related gene (hERG) potassium channel (Q12809 whole entry, looked up): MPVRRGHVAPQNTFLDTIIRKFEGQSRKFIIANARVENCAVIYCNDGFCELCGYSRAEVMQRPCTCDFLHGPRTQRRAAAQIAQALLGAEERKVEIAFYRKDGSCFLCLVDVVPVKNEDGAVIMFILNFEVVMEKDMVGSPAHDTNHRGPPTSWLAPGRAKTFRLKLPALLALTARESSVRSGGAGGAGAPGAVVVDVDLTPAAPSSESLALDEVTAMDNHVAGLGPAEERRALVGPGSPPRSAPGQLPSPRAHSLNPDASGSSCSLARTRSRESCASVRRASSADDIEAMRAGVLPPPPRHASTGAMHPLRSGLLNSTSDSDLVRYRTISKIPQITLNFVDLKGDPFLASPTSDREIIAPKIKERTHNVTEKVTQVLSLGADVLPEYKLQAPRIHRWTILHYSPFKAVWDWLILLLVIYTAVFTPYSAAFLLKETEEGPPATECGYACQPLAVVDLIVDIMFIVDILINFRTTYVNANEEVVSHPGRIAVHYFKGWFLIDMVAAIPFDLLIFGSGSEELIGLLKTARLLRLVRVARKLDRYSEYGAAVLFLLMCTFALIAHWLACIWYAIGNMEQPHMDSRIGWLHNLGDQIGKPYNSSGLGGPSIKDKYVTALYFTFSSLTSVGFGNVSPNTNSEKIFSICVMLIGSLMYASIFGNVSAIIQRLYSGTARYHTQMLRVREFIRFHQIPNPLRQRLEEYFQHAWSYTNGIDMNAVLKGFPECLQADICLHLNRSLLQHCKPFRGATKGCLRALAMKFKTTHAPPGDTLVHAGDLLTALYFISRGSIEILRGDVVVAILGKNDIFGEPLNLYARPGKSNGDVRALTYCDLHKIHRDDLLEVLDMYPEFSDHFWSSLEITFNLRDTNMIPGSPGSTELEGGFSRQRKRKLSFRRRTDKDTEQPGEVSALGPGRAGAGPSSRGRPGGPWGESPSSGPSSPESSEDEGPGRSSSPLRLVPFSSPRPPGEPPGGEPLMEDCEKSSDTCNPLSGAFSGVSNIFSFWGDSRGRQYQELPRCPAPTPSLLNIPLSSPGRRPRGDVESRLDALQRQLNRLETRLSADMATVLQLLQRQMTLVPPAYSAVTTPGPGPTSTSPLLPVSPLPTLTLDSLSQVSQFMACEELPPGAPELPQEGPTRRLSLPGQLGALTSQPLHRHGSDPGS
With `C=CCOc1c(Br)cc(/C=N/Nc2ccc(C(=O)O)cc2)cc1OCC`, the “hERG current change (%, negative = inhibition) at 1uM” value is reported as -2.76%. To `COc1ccc(NC2CCCN(C(=O)c3ccc(OC)cc3OC)C2)cc1` (stereo not drawn) belongs 4.7%.

As to `O=C(O)c1ccc(NS(=O)(=O)c2ccc3c(c2)OCCO3)cc1`, the “hERG current change (%, negative = inhibition) at 1uM” value is recorded as -11%.

As to `CCCCn1c(N)c(N(CC(C)C)C(=O)C2CC(=O)N(c3ccc(C)cc3)C2)c(=O)[nH]c1=O` (stereo not drawn), the “hERG current change (%, negative = inhibition) at 1uM” value is listed as 15.7%. As for `COc1ccc(S(=O)(=O)Cc2ccc(C(=O)NCc3ccco3)o2)cc1`, the figure is -15.4%. As for `Oc1c(CN2CCOCC2)cc(COCc2ccccc2)c2cccnc12`, the figure is -1.59%; as for `CCN(CC)S(=O)(=O)c1ccc(N2CCOCC2)c(NC(=O)C2=COCCO2)c1`, 8.31%.

As for `COc1cccc(NC(=O)N2CCCC2C(=O)NCc2ccc(Cl)cc2)c1` (stereo not drawn), the “hERG current change (%, negative = inhibition) at 1uM” value is listed as -5.51%.

With `C/C(O)=C(/C=Nc1ccccc1)C(=O)Nc1ccccc1`, the “hERG current change (%, negative = inhibition) at 1uM” value turned out to be 8.99%. As for `N#CC1=C(N)Oc2nc[nH]c(=O)c2C1c1cccs1` (stereo not drawn), the figure is 17.3%; as for `CCNC(=S)NNC(=O)Nc1ccccc1`, 5.4%; as for `COc1ccc(C2=NN(c3ccccc3)C(c3cn(CCC(=O)O)nc3-c3ccccc3)C2)cc1` (stereo not drawn), 1.4%.

Turning to `CNCC(=O)N(CC(C)C)c1c(N)n(CC(C)C)c(=O)[nH]c1=O`, the “hERG current change (%, negative = inhibition) at 1uM” value is reported as 14.7%. To `Cc1c(N)cccc1-c1nc2ccccc2[nH]1` belongs 19.2%; to `COC(=O)C1=C(C)NC(C)=C(C(=O)OC)C1c1ccc(C)o1`, 13.6%. As for `COn1c(=O)c(-c2ccc(C)cc2)[n+]([O-])c2ccccc21`, the figure is 18.3%; as for `COc1ccccc1C(=O)Nc1ccnn1C1CCN(C(C)CSC)CC1` (stereo not drawn), -10.6%; as for `CCN(CC)c1ccc(C(=O)OCc2cc(=O)oc3cc(O)ccc23)cc1`, 4.83%. Take `Cc1ccc(S(=O)(=O)N2CCC(C(=O)C3C(=O)CCCC3=O)CC2)cc1`: the “hERG current change (%, negative = inhibition) at 1uM” value came to 6.14%.

On to `CCOC(=O)N1CCN(C(=O)CSc2nnc(CNC(=O)c3c(F)cccc3Cl)o2)CC1`, for which the “hERG current change (%, negative = inhibition) at 1uM” value was determined as 6.57%. To `Cc1[nH]nc(-c2ccc(O)cc2O)c1-c1nc2ccccc2s1.O=C(O)C(=O)O` belongs 10.4%; to `Cc1cccc(CN2CCN(Cc3nc4c(s3)CCCC4)CC2CCO)n1` (stereo not drawn), 1.31%; to `Cc1ccc(-c2nn(CC(N)=O)c(=O)c3ccccc23)cc1S(=O)(=O)N(C)C`, 1.21%. To `Cc1cccc(N(C(=O)c2csnn2)C(C(=O)NC2CCCCC2)c2ccccn2)c1C` (stereo not drawn) belongs 12%; to `Cc1c(NC(=O)OC(C)C)sc(=S)n1C`, -0.475%; to `O=C(c1ccc2c(c1)OCCO2)N1CCN(Cc2c(F)cccc2Cl)CC1`, 1.92%. To `CC(C)(C)OC(=O)Cn1c(=O)cnc2ccccc21` belongs 13.9%. Turning to `Nc1nnc(SCC(=O)Nc2cccc(S(N)(=O)=O)c2)s1`, the “hERG current change (%, negative = inhibition) at 1uM” value is 0.79%. To `O=C(CCSCCC(=O)N1CCCC1)N1CCCC1` belongs 22.3%; to `O=C(O)c1ccc(COc2c(F)c(F)cc(F)c2F)cc1`, 10.1%. As for `Cc1cc(NC(=O)CSc2nc3sc4c(c3c(=O)n2C)CCCC4)no1`, the figure is 12.5%; as for `CCNc1nc(N)nc(Oc2ccc(OCC)nn2)n1`, 13.5%. As for `Cc1ccccc1-n1c(C)nnc1SCC(=O)N(C)C1CCS(=O)(=O)C1` (stereo not drawn), the figure is 15.3%.

Take `COc1ncnc(NS(=O)(=O)c2ccc(N)cc2)c1OC`: the “hERG current change (%, negative = inhibition) at 1uM” value is -11.9%. As for `COCc1cc(OC(=O)N(C)C)nc(-c2ccc(C)c(Cl)c2)n1`, the figure is 15.6%. To `C=CCNC(=S)NNC(=O)CC12CC3CC(CC(C3)C1)C2` belongs 13%; to `COc1cc2c(C(=O)NCc3ccc(C)o3)cn(CC(C)C)c(=O)c2cc1OC`, 9.34%; to `CCCN(CCC)CCCNC(=S)Nc1ccc2nc(N3CCCC3)cc(C)c2c1`, -14.5%. To `Cc1ccc(C(=O)N/C(=C\c2ccc(F)cc2)C(=O)NCCN2CCOCC2)cc1` belongs -79.1%; to `COc1ccc(NC(=O)NCc2cccnc2)c(OC)c1`, 13%; to `C=CCN1C(=O)CSc2ccc(C(=O)OCC)cc21`, -5.77%.

`CCOC(=O)CSc1nc(-c2ccccc2)nc2ccc(F)cc12`: the “hERG current change (%, negative = inhibition) at 1uM” value was 19.4%. Turning to `Cc1ccc(CN2CCN(Cc3cnn(-c4ccc(F)cc4)c3)CC2CCO)o1` (stereo not drawn), the “hERG current change (%, negative = inhibition) at 1uM” value is reported as -15.8%. As for `COc1ccccc1N1CCN(CCNC(=O)Nc2cccc(C)c2C)CC1`, the figure is 0.664%. As for `CC1(C)CC(=O)C2=C(C1)N(Cc1cccnc1)C(=O)C2(NC(=O)C1CC1)C(F)(F)F` (stereo not drawn), the figure is 3.61%; as for `CC(Oc1ccc(Cl)cc1Cl)C(=O)NCCN1CCOCC1` (stereo not drawn), 5.12%. As for `Cc1nn(Cc2cccc(C(=O)NC(C)c3ccc(C(C)(C)C)cc3)c2)c(C)c1[N+](=O)[O-]` (stereo not drawn), the figure is -0.0182%; as for `CS(=O)(=O)Nc1cccc(C2=NN(C(=O)c3cccc([N+](=O)[O-])c3)C(c3cccs3)C2)c1` (stereo not drawn), 11%. Consider `O=C(CCS(=O)(=O)c1cccs1)NC1CCCCCC1`, for which the “hERG current change (%, negative = inhibition) at 1uM” value is 7.3%. To `O=C1CCCc2c1cc(-c1ccccc1)n2-c1ccccc1` belongs -4.53%; to `Cc1ccc(S(=O)(=O)Cc2ccc(C(=O)NC3CCCCCC3)o2)cc1`, 10.7%. Consider `CN1C(=O)NC(c2ccc([N+](=O)[O-])cc2)C2=C1CC(C)(C)CC2=O` (stereo not drawn), for which the “hERG current change (%, negative = inhibition) at 1uM” value amounted to 11.8%. To `O=[N+]([O-])c1nn(-c2ccc3c(c2)OCCO3)n(O)c1=NCc1ccccc1Cl` belongs 6.95%; to `CCOc1cc(/C=C2/NC(=O)N(CC(=O)OC)C2=O)ccc1O`, 9.21%; to `Cc1cccc(C)c1NC(=O)CNC(=O)c1ccc2nc[nH]c2c1`, 13.2%.

For the molecule `O=C(c1nn2cccnc2c1Cl)N1CCN(c2ccccc2)CC1`, the “hERG current change (%, negative = inhibition) at 1uM” value is on record as 13.9%. In the case of `N#CC1=C(N)SC(N)=C(C#N)C1CCc1ccccc1`, the “hERG current change (%, negative = inhibition) at 1uM” value turned out to be 17.2%.

Take `N#C/C(=C/c1ccc(Cl)cc1)NC(=O)c1ccccc1`: the “hERG current change (%, negative = inhibition) at 1uM” value came to 12.2%. As for `CCN(CC)C(=O)COc1ccc2oc(-c3ccco3)cc(=O)c2c1`, the figure is -0.156%; as for `CC1C(=O)N2CCCc3cc(S(=O)(=O)N(C)CCC#N)cc1c32` (stereo not drawn), -3.28%; as for `CCOc1ccc(NC(=O)C2CCC(CNc3c(N4CCOCC4)c(=O)c3=O)CC2)cc1` (stereo not drawn), 6.47%. For `C=CCn1c(NCc2ccccc2OC)nc2ccccc21`, the “hERG current change (%, negative = inhibition) at 1uM” value was determined as 8.43%. As to `COC(=O)c1cc(S(=O)(=O)NCC2CCN(Cc3cccc(Cl)c3)CC2)c[nH]1`, the “hERG current change (%, negative = inhibition) at 1uM” value was 5.82%. `O=C(CSc1ccc2nnc(-c3ccccc3)n2n1)NCc1ccc2c(c1)OCO2`: the “hERG current change (%, negative = inhibition) at 1uM” value is -71%. For `COc1ccccc1N1CCN(C2CCCN(C(=O)CCC(=O)N(C)C)C2)CC1` (stereo not drawn), the “hERG current change (%, negative = inhibition) at 1uM” value is given as -3.24%.

In the case of `COc1ccc(-n2nc(C(=O)NCC(=O)NCCN(C)C)c3ccccc3c2=O)c(OC)c1`, the “hERG current change (%, negative = inhibition) at 1uM” value amounted to 11.5%. To `OCCN1CCN(c2nc(-c3ccccc3)nc3c2oc2ccccc23)CC1` belongs 3.14%; to `CCOC(=O)N1CCC(=NNc2ccnc3cc(Cl)ccc23)CC1`, -5.73%; to `Cc1ccc(C(C(=O)NC2CCCCC2)N(Cc2ccco2)C(=O)Cc2c[nH]c3ccccc23)o1` (stereo not drawn), 5.48%. Take `CC(C)N(C(=S)NC1CC2CCC1C2)c1ccccc1` (stereo not drawn): the “hERG current change (%, negative = inhibition) at 1uM” value is listed as 15.4%. For the molecule `COc1ccc(C(C(=O)NCC2CCCO2)N(C(=O)CNC(=O)c2cccs2)c2ccc(NC(C)=O)cc2)cc1OC` (stereo not drawn), the “hERG current change (%, negative = inhibition) at 1uM” value was 13.8%.

As to `CC(C)C1NC(=S)N(C2CCCCC2)C1=O` (stereo not drawn), the “hERG current change (%, negative = inhibition) at 1uM” value was -16.2%.

Take `CCCc1cc(=O)n2[nH]c(NCc3ccccc3Cl)nc2n1`: the “hERG current change (%, negative = inhibition) at 1uM” value is recorded as 13.9%. As for `Cc1ccc(OCC(=O)NCCCNC(=O)c2ccc(C)nc2)cc1`, the figure is 19.7%; as for `COc1ccc(CNCc2cc3c(cc2[N+](=O)[O-])OCO3)cc1.O=C(O)C(=O)O`, -14%; as for `O=Cc1c(C(=O)O)n(Cc2ccc(Cl)cc2)c2ccccc12`, 15.2%. To `CCOc1ccc(NC(=O)c2ccc(CSc3nnnn3C)cc2)cc1` belongs 6.92%. As for `CCc1ccccc1NC(=O)CCS(=O)(=O)c1ccc(OC)cc1`, the figure is 14.3%; as for `CC1CCCCN1CC(=O)NCc1ccc2c(c1)OCO2` (stereo not drawn), 1.2%; as for `Cc1cc(C(=O)CSc2nnc(-c3ccc(F)cc3)o2)c(C)n1CC1CCCO1` (stereo not drawn), 14%. Consider `CCCC(=O)n1nc(-c2ccco2)nc1SCc1ccccc1`, for which the “hERG current change (%, negative = inhibition) at 1uM” value was found to be 8.14%. To `Cn1c(=O)[nH]c(=O)c2c1nc(CN1CCN(c3ccccc3F)CC1)n2CC(N)=O` belongs 4.23%; to `CC(C)(C)c1ccc(-c2nnc(SCC(=O)NC3CC3)o2)cc1`, 9.68%; to `Cc1ccc(CSCCNC(=O)/C=C/c2ccccc2Cl)cc1`, 4.67%. To `O=C1CS/C(=N/N=C/c2c[nH]c3ccccc23)N1` belongs 6.96%. On to `Cc1cc(C)c(C#N)c(SCC(=O)c2ccccc2)n1`, for which the “hERG current change (%, negative = inhibition) at 1uM” value is -11%.

With `COc1ccc(N2C(=O)CC(NNc3ncc(Cl)cc3Cl)C2=O)cc1` (stereo not drawn), the “hERG current change (%, negative = inhibition) at 1uM” value is -27.5%.

For `O=C1NC[C@H](c2ccccc2)N(CC2CCCCC2)C1=O`, the “hERG current change (%, negative = inhibition) at 1uM” value was 13.1%. To `COC(=O)c1cc(NC(=O)c2nccnc2C(=O)O)cc(C(=O)OC)c1` belongs 13.7%; to `Cc1ccc(OCCN2C(=O)OC(C)(C)C2(C)O)cc1` (stereo not drawn), 5.2%.
